Laboratory results as given in the supplement of paper PMC8728848.
Some of the results follow.

Key:
Experiment in all cases: glycan array binding signal (z-score within array); higher = stronger binding
Settings in all cases: glycan notation: IUPAC condensed, linker removed
[1] = molecular target: Neu5Ac(a2-3)Gal(b1-4)GlcNAc(b1-2)[Neu5Ac(a2-3)Gal(b1-4)GlcNAc(b1-4)]Man(a1-3)[GlcNAc(b1-4)][Neu5Ac(a2-3)Gal(b1-4)GlcNAc(b1-2)[Neu5Ac(a2-3)Gal(b1-4)GlcNAc(b1-6)]Man(a1-6)]Man(b1-4)GlcNAc(b1-4)GlcNAc
How it was run: (§1)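 From the Consortium for Functional Glycomics database, 3228 arrays were curated, keeping only those whose protein sequence was available. Binding is given as a within-array Z-score averaged across arrays sharing a protein sequence and across linkers. Negative Z-scores can be read as non-binding.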

[2] = molecular target: Neu5Ac(a2-3)Gal(b1-4)GlcNAc(b1-2)[Neu5Ac(a2-3)Gal(b1-4)GlcNAc(b1-4)]Man(a1-3)[GlcNAc(b1-4)][Neu5Ac(a2-3)Gal(b1-4)GlcNAc(b1-4)Man(a1-6)]Man(b1-4)GlcNAc(b1-4)GlcNAc
How it was run: as §1

[3] = molecular target: Neu5Ac(a2-3)Gal(b1-4)GlcNAc(b1-2)[Neu5Ac(a2-3)Gal(b1-4)GlcNAc(b1-6)]Man(a1-6)[Neu5Ac(a2-3)Gal(b1-4)GlcNAc(b1-2)Man(a1-3)][GlcNAc(b1-4)]Man(b1-4)GlcNAc(b1-4)GlcNAc
How it was run: as §1

[4] = molecular target: Neu5Ac(a2-3)Gal(b1-4)GlcNAc(b1-3)Gal
How it was run: as §1

[5] = molecular target: Neu5Ac(a2-3)Gal(b1-4)GlcNAc(b1-3)Gal(b1-3)GlcNAc
How it was run: as §1

[6] = molecular target: Neu5Ac(a2-3)Gal(b1-4)GlcNAc(b1-3)Gal(b1-4)GlcNAc
How it was run: as §1

[7] = molecular target: Neu5Ac(a2-3)Gal(b1-4)GlcNAc(b1-3)Gal(b1-4)GlcNAc(b1-2)Man(a1-3)[Neu5Ac(a2-3)Gal(b1-4)GlcNAc(b1-3)Gal(b1-4)GlcNAc(b1-2)Man(a1-6)]Man(b1-4)GlcNAc(b1-4)GlcNAc
How it was run: as §1

[8] = molecular target: Neu5Ac(a2-3)Gal(b1-4)GlcNAc(b1-3)Gal(b1-4)GlcNAc(b1-3)Gal(b1-4)GlcNAc
How it was run: as §1

[9] = molecular target: Neu5Ac(a2-3)Gal(b1-4)GlcNAc(b1-3)Gal(b1-4)GlcNAc(b1-3)Gal(b1-4)GlcNAc(b1-2)Man(a1-3)[Neu5Ac(a2-3)Gal(b1-4)GlcNAc(b1-3)Gal(b1-4)GlcNAc(b1-3)Gal(b1-4)GlcNAc(b1-2)Man(a1-6)]GalNAc
How it was run: as §1

[10] = molecular target: Neu5Ac(a2-3)Gal(b1-4)GlcNAc(b1-3)Gal(b1-4)GlcNAc(b1-3)GalNAc
How it was run: as §1

[11] = molecular target: Neu5Ac(a2-3)Gal(b1-4)GlcNAc(b1-3)Gal(b1-4)GlcNAc(b1-3)[Neu5Ac(a2-3)Gal(b1-4)GlcNAc(b1-3)Gal(b1-4)GlcNAc(b1-6)]GalNAc
How it was run: as §1

[12] = molecular target: Neu5Ac(a2-3)Gal(b1-4)GlcNAc(b1-3)Gal(b1-4)GlcNAc(b1-6)[Gal(b1-3)]GalNAc
How it was run: as §1

[13] = molecular target: Neu5Ac(a2-3)Gal(b1-4)GlcNAc(b1-3)Gal(b1-4)[Fuc(a1-3)]GlcNAc
How it was run: as §1

[14] = molecular target: Neu5Ac(a2-3)Gal(b1-4)GlcNAc(b1-3)GalNAc
How it was run: as §1

[15] = molecular target: Neu5Ac(a2-3)Gal(b1-4)GlcNAc(b1-3)[Neu5Ac(a2-3)Gal(b1-4)GlcNAc(b1-6)]GalNAc
How it was run: as §1

[16] = molecular target: Neu5Ac(a2-3)Gal(b1-4)GlcNAc(b1-6)GalNAc
How it was run: as §1

[17] = molecular target: Neu5Ac(a2-3)Gal(b1-4)GlcNAc(b1-6)[Gal(b1-3)]GalNAc
How it was run: as §1

[18] = molecular target: Neu5Ac(a2-3)Gal(b1-4)GlcNAc(b1-6)[Neu5Ac(a2-3)Gal(b1-3)]GalNAc
How it was run: as §1

[19] = molecular target: Neu5Ac(a2-3)Gal(b1-4)GlcNAc6S
How it was run: as §1

[20] = molecular target: Neu5Ac(a2-3)Gal(b1-4)[Fuc(a1-3)]GlcNAc
How it was run: as §1

[21] = molecular target: Neu5Ac(a2-3)Gal(b1-4)[Fuc(a1-3)]GlcNAc(b1-2)Man
How it was run: as §1

[22] = molecular target: Neu5Ac(a2-3)Gal(b1-4)[Fuc(a1-3)]GlcNAc(b1-3)Gal
How it was run: as §1

[23] = molecular target: Neu5Ac(a2-3)Gal(b1-4)[Fuc(a1-3)]GlcNAc(b1-3)Gal(b1-4)GlcNAc
How it was run: as §1

[24] = molecular target: Neu5Ac(a2-3)Gal(b1-4)[Fuc(a1-3)]GlcNAc(b1-3)Gal(b1-4)[Fuc(a1-3)]GlcNAc(b1-3)Gal(b1-4)[Fuc(a1-3)]GlcNAc
How it was run: as §1

[25] = molecular target: Neu5Ac(a2-3)Gal(b1-4)[Fuc(a1-3)]GlcNAc(b1-3)GalNAc
How it was run: as §1

[26] = molecular target: Neu5Ac(a2-3)Gal(b1-4)[Fuc(a1-3)]GlcNAc(b1-6)[Gal(b1-3)]GalNAc
How it was run: as §1

[27] = molecular target: Neu5Ac(a2-3)Gal(b1-4)[Fuc(a1-3)]GlcNAc(b1-6)[Neu5Ac(a2-3)Gal(b1-3)]GalNAc
How it was run: as §1

[28] = molecular target: Neu5Ac(a2-3)Gal(b1-4)[Fuc(a1-3)]GlcNAc6S
How it was run: as §1

[29] = molecular target: Neu5Ac(a2-3)Gal6S(b1-4)GlcNAc
How it was run: as §1

[30] = molecular target: Neu5Ac(a2-3)Gal6S(b1-4)[Fuc(a1-3)]GlcNAc
How it was run: as §1

Neu5Ac(a2-3)GalNAc = molecular target: Neu5Ac(a2-3)GalNAc
How it was run: as §1

[31] = molecular target: Neu5Ac(a2-3)GalNAc(b1-4)GlcNAc
How it was run: as §1

[32] = molecular target: Neu5Ac(a2-3)[GalNAc(b1-4)]Gal(b1-4)Glc
How it was run: as §1

[33] = molecular target: Neu5Ac(a2-3)[GalNAc(b1-4)]Gal(b1-4)GlcNAc
How it was run: as §1

[34] = molecular target: Neu5Ac(a2-3)[GalNAc(b1-4)]Gal(b1-4)GlcNAc(b1-3)GalNAc
How it was run: as §1

[35] = molecular target: Neu5Ac(a2-3)[Neu5Ac(a2-6)]GalNAc
How it was run: as §1

Neu5Ac(a2-6)Gal = molecular target: Neu5Ac(a2-6)Gal
How it was run: as §1

B1: SAOUHSC 00176 (Staphylococcus aureus) (protein)
chain: MSKILKCITLAVVMLLIVTACGPNRSKEDIDKALNKDNSKDKPNQLTMWVDGDKQMAFYKKITDQYTKKTGIKVKLVNIGQNDQLENISLDAPAGKGPDIFFLAHDNTGSAYLQGLAAEIKLSKDELKGFNKQALKAMNYDNKQLALPAIVETTALFYNKKLVKNAPQTLEEVEANAAKLTDSKKKQYGMLFDAKNFYFNYPFLFGNDDYIFKKNGSEYDIHQLGLNSKHVVKNAERLQKWYDKGYLPKAATHDVMIGLFKEGKVGQFVTGPWNINEYQETFGKDLGVTTLPTDGGKPMKPFLGVRGWYLSEYSKHKYWAKDLMLYITSKDTLQKYTDEMSEITGRVDVKSSNPNLKVFEKQARHAEPMPNIPEMRQVWEPMGNASIFISNGKNPKQALDEATNDITQNIKILHPSQNDKKGD
- glycan array binding signal (z-score) [1]: -0.073
- glycan array binding signal (z-score) [2]: -0.014
- glycan array binding signal (z-score) [3]: -0.068
- glycan array binding signal (z-score) [4]: -0.114
- glycan array binding signal (z-score) [5]: -0.09
- glycan array binding signal (z-score) [6]: 0.002
- glycan array binding signal (z-score) [7]: 0.122
- glycan array binding signal (z-score) [8]: -0.073
- glycan array binding signal (z-score) [9]: 0.214
- glycan array binding signal (z-score) [10]: -0.089
- glycan array binding signal (z-score) [11]: -0.07
- glycan array binding signal (z-score) [12]: -0.09
- glycan array binding signal (z-score) [13]: -0.015
- glycan array binding signal (z-score) [14]: -0.074
- glycan array binding signal (z-score) [15]: -0.085
- glycan array binding signal (z-score) [16]: -0.1
- glycan array binding signal (z-score) [17]: -0.07
- glycan array binding signal (z-score) [18]: -0.113
- glycan array binding signal (z-score) [19]: -0.027
- glycan array binding signal (z-score) [20]: -0.132
- glycan array binding signal (z-score) [21]: -0.059
- glycan array binding signal (z-score) [22]: -0.152
- glycan array binding signal (z-score) [23]: 0.011
- glycan array binding signal (z-score) [24]: -0.113
- glycan array binding signal (z-score) [25]: 0.054
- glycan array binding signal (z-score) [26]: -0.092
- glycan array binding signal (z-score) [27]: 0.049
- glycan array binding signal (z-score) [28]: 0.059
- glycan array binding signal (z-score) [29]: -0.173
- glycan array binding signal (z-score) [30]: -0.251
- glycan array binding signal (z-score) (Neu5Ac(a2-3)GalNAc): -0.11
- glycan array binding signal (z-score) [31]: -0.141
- glycan array binding signal (z-score) [32]: -0.066
- glycan array binding signal (z-score) [33]: -0.077
- glycan array binding signal (z-score) [34]: -0.117
- glycan array binding signal (z-score) [35]: -0.053
- glycan array binding signal (z-score) (Neu5Ac(a2-6)Gal): -0.073
